PMC4336329 (PLoS ONE, 2015)
In all, about 310,000 compounds went through this assay and about 2,200 (0.71%) showed an effect of 50% or more. Effects have a minus sign here. The list shows a part of the results.

molecular target: human ether-à-go-go-related gene (hERG) potassium channel (human, UniProt Q12809); experiment: primary screen, population patch clamp on CHO cells stably expressing hERG
Sequence (Q12809 whole entry, looked up): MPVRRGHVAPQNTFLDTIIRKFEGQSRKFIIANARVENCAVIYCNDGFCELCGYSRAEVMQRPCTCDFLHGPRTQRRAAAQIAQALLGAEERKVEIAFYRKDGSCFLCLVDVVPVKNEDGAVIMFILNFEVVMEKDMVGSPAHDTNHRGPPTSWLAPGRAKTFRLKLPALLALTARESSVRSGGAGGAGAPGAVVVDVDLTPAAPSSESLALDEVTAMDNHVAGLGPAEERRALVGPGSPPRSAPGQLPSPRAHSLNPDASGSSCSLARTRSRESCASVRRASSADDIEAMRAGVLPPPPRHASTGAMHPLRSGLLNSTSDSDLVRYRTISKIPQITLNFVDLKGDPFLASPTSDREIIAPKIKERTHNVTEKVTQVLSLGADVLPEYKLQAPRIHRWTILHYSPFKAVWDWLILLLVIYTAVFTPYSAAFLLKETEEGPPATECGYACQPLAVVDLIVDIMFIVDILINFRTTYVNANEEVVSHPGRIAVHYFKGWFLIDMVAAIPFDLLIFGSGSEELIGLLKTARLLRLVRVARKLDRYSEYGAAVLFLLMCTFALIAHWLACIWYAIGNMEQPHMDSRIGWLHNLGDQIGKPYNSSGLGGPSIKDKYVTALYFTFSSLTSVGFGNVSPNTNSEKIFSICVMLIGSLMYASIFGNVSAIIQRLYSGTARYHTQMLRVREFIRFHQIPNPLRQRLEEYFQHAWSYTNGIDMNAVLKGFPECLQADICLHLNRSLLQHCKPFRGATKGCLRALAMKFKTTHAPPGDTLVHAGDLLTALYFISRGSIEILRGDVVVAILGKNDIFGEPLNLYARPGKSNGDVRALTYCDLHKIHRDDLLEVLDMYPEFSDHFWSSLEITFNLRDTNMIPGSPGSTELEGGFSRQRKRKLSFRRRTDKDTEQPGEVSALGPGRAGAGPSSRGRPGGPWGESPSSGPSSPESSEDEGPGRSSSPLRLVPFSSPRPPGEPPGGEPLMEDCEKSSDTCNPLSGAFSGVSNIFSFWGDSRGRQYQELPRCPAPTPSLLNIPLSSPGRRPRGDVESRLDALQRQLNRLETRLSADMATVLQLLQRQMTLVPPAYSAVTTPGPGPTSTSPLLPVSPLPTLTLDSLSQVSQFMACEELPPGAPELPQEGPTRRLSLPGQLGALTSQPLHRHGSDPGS

| Structure (SMILES) | hERG current change (%, negative = inhibition) at 1uM [%] |
| --- | --- |
| Cn1c(O)c(C=Nc2ccc(Cl)cc2)c(=O)n(C)c1=O | 13.9 |
| CCOC(=O)Cn1nc(-c2ccc(Cl)cc2)cc1N | -6.18 |
| O=S(=O)(Nc1ccccn1)c1cccs1 | 20.2 |
| CCN1CCSc2ccc(C(=O)NCc3ccc(OC(C)C)cc3)cc21 | 13 |
| Cc1cccc(NC(=O)CSc2nnc(-c3ccco3)o2)c1 | 16.2 |
| Cc1nc(N2CCC(C)CC2)c(C#N)c(C)c1[N+](=O)[O-] | 9.99 |
| CCN(CC)CCN(Cc1cc2ccc(C)cc2[nH]c1=O)C(=O)NC1CCCCC1 | -23.9 |
| Cc1cc(C)c(NC(=O)COC(=O)CCn2c(C)csc2=O)c(C)c1 | 0.656 |
| O=C(NCc1cccs1)c1cccnc1SCCS(=O)(=O)c1ccc(C(F)(F)F)cn1 | 4.76 |
| CCCn1cc(CN2CCC(Cc3cccc(F)c3)(C(=O)OCC)CC2)c(C)n1 | -60.3 |
| S=C(Nc1ccccc1)N1N=CCC1c1ccccc1 (centres unmarked) | -17.1 |
| COc1ccc(C(=O)N2CCn3c2nc2ccccc23)cc1 | 6.48 |
| CCNc1nc(NC(C)C)nc(Oc2ccc(OCCOc3ccccc3)nn2)n1 | 9.17 |
| O=C(CCCC1=NS(=O)(=O)c2ccccc2N1)N1CCN(c2ccc(Cl)cc2)CC1 | -15.7 |
| O=C(O)/C=C/C(=O)NNC(=O)c1ccc(Br)cc1 | 14.9 |
| NNC(=O)c1cc(O)c(O)c(O)c1 | 16.9 |
| CC(C)NC(=O)COC(=O)c1cc(F)c(F)cc1Cl | 16.3 |
| CCSc1nnc(-c2ccncc2)o1 | 24.6 |
| COc1ccc(C(=O)O)cc1S(=O)(=O)N(C)CCc1ccccn1 | 16.3 |
| O=C(O)C1CCCCN1C(=O)c1ccc(S(=O)(=O)N2CCCCCC2)cc1 (centres unmarked) | 13.6 |
| O=c1oc(-c2ccccc2)nc2sc3c(c12)CCC3 | 7.52 |
| CCOC(=O)Cc1csc(NC(=O)CSc2nnnn2-c2ccc(F)cc2)n1 | -4.09 |
| C=CCNC(=O)C1CCN(S(=O)(=O)c2ccccc2)CC1 | 5.99 |

| Structure (SMILES) | hERG current change (%, negative = inhibition) at 1uM [%] |
| --- | --- |
| O=C(Nc1c2c(nn1-c1ccc(Cl)cc1)CS(=O)(=O)C2)C1CC1 | 1.67 |
| O=S(=O)(Nc1ccc(N2CCOCC2)cc1)c1ccc(F)cc1 | 9.97 |
| N/C(=N\OC(=O)Nc1ccccc1)c1ncc(C(F)(F)F)cc1Cl | 5.81 |
| COc1cccc2c1C(=O)C[C@]1(CCCC[C@@H]1C)O2 | 10.6 |
| CCN1CCN(c2ccc(S(=O)(=O)N3CCOCC3)cc2NC(=O)/C=C/c2ccc(OC)cc2OC)CC1 | 9.63 |
| CCCCn1c(N)c(N(CCOC)C(=O)CSc2n[nH]c(-c3ccc(C)cc3)n2)c(=O)[nH]c1=O | 5.19 |
| O=C(CCn1c(=O)sc2ccccc21)Nc1cccnc1 | 7.23 |
| Cc1nnc(NC(=O)c2ccc3ccccc3n2)s1 | 3.67 |
| Fc1ccc(C(CCNCc2ccccn2)c2ccc(Cl)cc2)cc1 (centres unmarked) | -41.6 |
| Cc1nn(C)c(Oc2cccc(Cl)c2)c1C(=O)Nc1ccc(F)cc1F | 2.77 |
| COc1ccccc1NS(=O)(=O)c1cccc(N=C2N=C(N)c3ccccc32)c1 | 14.6 |
| COCCN(Cc1cn(C)nc1-c1ccccc1F)C(C)C | 16.1 |
| O=C(Nc1ccc(O)c(-c2nc3ccccc3o2)c1)C1(c2ccc([N+](=O)[O-])cc2)CCCC1 | 5.46 |
| COc1cccc(OCCCCCCN2CCOCC2)c1 | 1.95 |
| O=C(N/N=C/c1ccccc1[N+](=O)[O-])c1ccc2c(c1)OCCO2 | 3.5 |
| COc1cc(NS(=O)(=O)c2c(C)[nH]c(C)c2C(=O)N2CCCCC2)cc(OC)c1OC | 2.75 |
| Cl.Fc1cccc(Cl)c1CNCc1ccccc1Cl | -9.98 |
| Cc1ccc(NS(=O)(=O)c2ccc3c(c2)oc(=O)n3C)cc1C | 11.2 |
| CC(c1nc2ccccc2c(=O)[nH]1)N(C)c1ccc2ccccc2c1 (centres unmarked) | 5.34 |
| Cc1ccccc1NC(=O)CN1CCC(n2nnc3ccccc32)CC1 | -12.1 |
| O=S(=O)(Nc1ccc(N=Nc2ccccc2)cc1)c1ccccc1 | 3.42 |
| CC(C)(C)c1ccc(NC(=O)COC(=O)c2ccc([N+](=O)[O-])s2)cc1 | 5.49 |
| CC(Sc1nnc(-c2cccnc2)n1-c1ccccc1F)C(=O)N1CCCc2ccccc21 (centres unmarked) | -0.48 |

| Structure (SMILES) | hERG current change (%, negative = inhibition) at 1uM [%] |
| --- | --- |
| CCOc1cc(NC(=S)NC)c(OCC)cc1NC(=O)c1ccco1 | 7.87 |
| COC(=O)/C=C1\SC(=NC(=O)c2cccc(Cl)c2)NC1=O | 9.73 |
| CCn1c(-c2ccc3[nH]c(C)c(C)c3c2)n[nH]c1=S | 20.9 |
| CCN1C(=O)N[C@@H](c2cccs2)C(C(=O)OC)=C1C | 14.6 |
| CC(Oc1ccccc1)C(=O)N1CCN(c2ncccn2)CC1 (centres unmarked) | 3.15 |
| COc1ccc(C2C(C#N)=C3NC(=O)c4c(sc5c4CCCCC5)N3C3=C2C(=O)CC(C)(C)C3)cc1 (centres unmarked) | 0.0408 |
| O=C(C1CCC1)N1CCN(S(=O)(=O)c2cccc(F)c2)CC1 | 5.89 |
| Cn1nnnc1SCC(=O)Nc1ncc(Cl)cc1Cl | 5.66 |
| OCC(O)CSc1nc(-c2ccccc2)nc2c1CCC2 (centres unmarked) | 0.848 |
| CCCN=C(Nc1ccc(Cl)cc1)c1cccnc1 | -1.17 |
| O=C(NC1CCCCC1)C(c1cccs1)N(CCCN1CCOCC1)C(=O)c1ccc(-c2ccccc2)[nH]1 (centres unmarked) | 3.7 |
| CN(CC(=O)N1CCN(c2ccccc2)CC1)S(=O)(=O)c1cccs1 | 6.69 |
| c1ccc(NC2=NCCS2)cc1 | 12.7 |
| COc1ccc(C(CNC(=O)CCNC(=O)c2ccc(Br)cc2)N2CCOCC2)cc1 (centres unmarked) | -2.51 |
| c1cc2cn[nH]c2cc1NC1CCCCCC1 | -5.7 |
| COc1ccc(/C=N/NC(=O)c2cccc(NC(C)=O)c2)c(C(=O)O)c1OC | 14.4 |
| COc1nc(N2CCCC2)nc(-n2nnc(C(C)=O)c2C)n1 | -3.53 |
| Nc1ccc(Sc2nnnn2-c2ccccc2)c(Cl)c1 | 7.15 |
| CCn1cc(/C=N\NC(=O)c2csc3ccccc23)c(C)n1 | 13.3 |
| CCN1CCN(Cc2ccc(NC(=O)c3cc(NC(=O)c4ccno4)cc(OC)c3)cc2C(F)(F)F)CC1 | 13.8 |
| COc1cc(CN(C)C)cc(C=O)c1O | 5.92 |
| CCOc1ncccc1C(=O)N1CCN(Cc2ccc3c(c2)OCO3)CC1 | -1.13 |
| O=C(c1ccc(-n2ccnc2)cc1)N1CCCC(CO)(Cc2cccc(Cl)c2)C1 (centres unmarked) | -13.3 |

| Structure (SMILES) | hERG current change (%, negative = inhibition) at 1uM [%] |
| --- | --- |
| COC(=O)[C@H](CCSC)NS(=O)(=O)c1ccccc1Br | 10.4 |
| COc1ccc2cc3c(nc2c1)OCC3 | 12.3 |
| CCOc1ccc(CCNC(=O)c2cc(C)nn2-c2ccccc2)cc1 | 2.12 |
| Cc1ccc(C)c(N(CC(=O)NCC2CCCO2)C(=O)CCC(=O)Nc2nccs2)c1 (centres unmarked) | 9.69 |
| COC(=O)Cn1c(=O)sc2ccccc21 | 6.17 |
| COc1ccccc1NS(=O)(=O)c1ccc2oc(SCc3ccc(F)cc3)nc2c1 | 5.14 |
| CC(Oc1ccccc1)C(=O)Nc1ccc(S(=O)(=O)Nc2nccs2)cc1 (centres unmarked) | 15.3 |
| CC(=O)c1cc(C(=O)c2ccccc2)sc1Nc1ccccc1 | 8.69 |
| CCn1c(=S)[nH]c2ccccc21 | 7.37 |
| CS(=O)(=O)N(CC(=O)Nc1ccccc1C(=O)NCc1ccccc1)c1ccc2c(c1)OCCO2 | -11.8 |
| Cc1ccc(C(=O)N/C(=C/c2ccc(Cl)cc2)C(=O)N2CCOCC2)cc1 | -9.41 |
| O=C(OCC(=O)c1ccc(S(=O)(=O)N2CCCC2)cc1)C1=COCCO1 | 14.4 |
| CCc1cc(OCCOCCN(C)C)ccc1Cl.O=C(O)C(=O)O | 3.67 |
| C=CCN1C(=O)CSC1=Nc1ccc(O)cc1 | 11.5 |
| COc1ccc(C(NC(=O)CN2C(=O)NC3(CCc4ccccc43)C2=O)c2ccccc2)cc1 (centres unmarked) | 8.65 |
| C=CCn1c(Br)nc2c1c(=O)n(C)c(=O)n2C | -11.3 |
| CC(C)CC12CN3CCN(CC(C3)C1O)C2 (centres unmarked) | -3.3 |
| Cc1c(C)c(C)c(S(=O)(=O)N2CCSCC2)c(C)c1C | 10.6 |
| Cc1cn2c(=O)c(C(=O)N3CCN(c4ccccc4Cl)CC3)cnc2s1 | -27.1 |
| CCOc1ncccc1C(=O)OCC(=O)c1ccc(OC)c(OC)c1 | 15 |
| O=C1/C(=C/c2ccc([N+](=O)[O-])cc2)C=C(c2ccccc2)N1c1ccc(O)cc1 | 7.51 |
| COc1ccc(-c2nc(CS(=O)CC(=O)NCc3ccco3)c(C)o2)cc1OC (centres unmarked) | -3.14 |
| CC(C)C(=O)NC(=S)Nc1ccc(S(=O)(=O)NC2CCCCC2)cc1 | 0.506 |
